# Measurements taken from PubChem BioAssay AID1240 (Sanford-Burnham Center for Chemical Genomics, 2008).
# The whole screen tested about 50,000 compounds, of which about 800 (1.6%) showed an effect of 50% or more. The list shows a part of the results.
# Molecular target: Bcl-2-like protein 10 (Homo sapiens) (UniProt Q9HD36)
# Test: TR3 peptide-Bcl-B binding displacers, biochemical primary FP assay, phenotype converters (AID 1240);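 further: 0% = Bcl-B with tracer peptide and DMSO and 100% = tracer peptide lacking Bcl-B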
# Settings: GST-Bcl-B / FITC-TR3 peptide fluorescence polarization; stronger effect = higher value; compound at 3.75 mg/L
# Sequence of UniProt Q9HD36 (Q9HD36 whole entry, looked up): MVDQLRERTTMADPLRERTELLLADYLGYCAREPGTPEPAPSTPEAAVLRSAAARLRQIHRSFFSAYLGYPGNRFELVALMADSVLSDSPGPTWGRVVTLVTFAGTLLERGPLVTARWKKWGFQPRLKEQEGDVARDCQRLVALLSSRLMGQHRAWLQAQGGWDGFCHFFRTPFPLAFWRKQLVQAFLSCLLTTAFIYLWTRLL
row,Structure (SMILES),displacement [%]
1,CCOc1ccccc1/C=C1/C(=O)NN(c2ccc(C)c(Cl)c2)C1=O,17.8
2,Cc1ccc2nc(/C(C#N)=C\c3ccc(Br)cc3)[nH]c2c1,136
3,O=C(O)c1nn2c(C(F)(F)F)cc(-c3cccs3)nc2c1Cl,3.1
4,CC(C)(C)c1ccc(C(=O)NNC(=O)c2ccncc2)cc1,-10.9
5,CSc1nncn1/N=C/c1ccc([N+](=O)[O-])cc1,-0.3
6,OC(CN1CCN(Cc2ccccc2)CC1)Cn1c2ccccc2c2ccccc21 (centres undefined),-5.9
7,O=C1OC(c2ccc(NC(=O)C(F)(F)F)cc2)(c2ccc(NC(=O)C(F)(F)F)cc2)c2ccccc21,4.8
8,O=C(O)/C=C/c1ccc(S(=O)(=O)NCc2cccnc2)cc1,8.8
9,CCOC(=O)c1ccccc1NC(=O)c1cc(Cl)ccc1OC,0.8
10,O=C(NCCCNc1ccc([N+](=O)[O-])cc1)c1ccccc1F,-8.7
11,CC(C)N(C(=O)CSc1nc2ccccc2s1)c1ccccc1,9.4
12,O=C(COc1cccc(Cl)c1)Nc1ccc2c(c1)OCCO2,2.2
13,N/C(=N\c1nc(C(F)(F)F)cc(=O)[nH]1)Nc1ccc(I)cc1,-2.2
14,COc1ccc(/C(C)=N/NC(=O)CCc2c(C)n[nH]c2C)cc1OC,-6
15,O=C(Nc1ccc(-c2cnc(-c3ccc(NC(=O)c4ccccc4Cl)cc3)nc2)cc1)c1ccccc1Cl,12.1
16,Cc1cc(C)nc(NN2C(=O)/C(=C/c3cccc(Br)c3)SC2=S)n1,-27.5
17,COc1cccc(NC(=O)/C(=C/c2ccc(C)o2)NC(=O)c2ccccc2)c1,9.6
18,COc1ccc(OCCNS(=O)(=O)c2ccccc2)cc1,5.7
19,COc1cc(OC)c(OC)cc1C=NN1CCN(c2ccc(Cl)cc2)CC1,-2
20,O=C(NC(=S)Nc1c(Cl)cc(Cl)cc1Cl)c1ccco1,4.7
21,C=CCN1C(=O)/C(=C\c2ccc(C(=O)OC)cc2)C(C(=O)OC)=C1C,-14.5
22,O=C(COc1ccc2ccccc2c1)NCc1cccnc1,0.9

row,Structure (SMILES),displacement [%]
1,CCCOc1ccc2c3c(c(=O)oc2c1OCCC)CCCC3,2
2,Cn1cnnc1SCC(=O)NC(c1ccccc1)c1ccccc1,5.3
3,COc1ccc(CCNC2CCN(Cc3ccccc3)CC2)cc1OC,7.4
4,CN1C/C(=C\c2cccnc2)C(=O)/C(=C/c2cccnc2)C1,-5.2
5,CCc1c(C)sc(NC(=O)C2C3CCC(C3)C2C(=O)O)c1C(=O)OC(C)C (centres undefined),-14.6
6,COc1ccc(S(=O)(=O)Nc2ccc(C)cc2C)cc1Br,2.5
7,O=C(NCCN1CCOCC1)c1cccc(I)c1,2.4
8,COc1ccc(/C=C2\SC(=S)N(C(C(=O)O)C(C)C)C2=O)cc1OC (centres undefined),-27.3
9,COc1cccc(-n2c(O)c(C=NCC3CCCO3)c(=O)[nH]c2=O)c1 (centres undefined),7.3
10,Cc1ccc(S(=O)(=O)/N=C(\c2ccccc2)N(C)C)cc1,13.2
11,CC(C)(C)c1ccc(-c2nn(CNc3cccc(Cl)c3)c(=S)o2)cc1,14
12,C/C(=N\N=C1\NC(=O)C(CC(=O)Nc2ccccc2)S1)c1ccc(O)cc1O (centres undefined),19
13,C/C(=N\Nc1nc(C(C)(C)C)cs1)c1ccccc1,12.7
14,CC(C)(C)NC(=O)c1ccc(NC(=O)C(C)(C)C)cc1,-0.9
15,O=C1C2C3C=CC(CC3)C2C(=O)N1/N=C/c1cccs1 (centres undefined),0.7
16,CCOc1cc(/C=C2\SC(=S)N(c3ccccc3)C2=O)ccc1OC(=O)c1cccc([N+](=O)[O-])c1,14.1
17,Cc1cc(I)ccc1NC(=O)c1ccccc1Cl,-3.5
18,Cc1cccc(N2C(=O)c3ccc(N)cc3C2=O)c1C,12.3
19,CCOc1ccc(NC(=O)CCC(=O)OC)cc1,12.6
20,Cc1cccc(C)c1NC(=O)Cc1ccc(Br)cc1,14.5
21,CC1=C(C(=O)OCC2CCCO2)C(c2cccs2)C2=C(CC(C)(C)CC2=O)N1 (centres undefined),2.8
22,CC(OC1=CC(=O)CCC1)C(=O)c1ccccc1 (centres undefined),-1.8

row,Structure (SMILES),displacement [%]
1,COc1ccc(CC(=O)Nc2ccc(Br)cc2C(=O)O)cc1,4.5
2,COc1ccc(/C(O)=C/C(=O)C(=O)NCc2ccccc2)cc1,5.5
3,O=C1c2cccc3ccc(Cl)c(c23)C(=O)N1Oc1ccc([N+](=O)[O-])cc1[N+](=O)[O-],30.9
4,CCOC(=O)C1=C(N)OC2=C(C(=O)CCC2)C1c1ccc(Cl)cc1Cl (centres undefined),-2.9
5,O=S(=O)(c1cc(Cl)ccc1Cl)n1cnc2ccccc21,-5.9
6,CC(C)(C)NS(=O)(=O)c1ccc2ccccc2c1,-2
7,COC(C)(C)c1cc(-c2ccccc2)nc(N)n1,-6
8,COc1ccccc1CNC(=O)C(=O)Nc1cc(C)ccc1C,8.5
9,COc1ccc(N=c2ssc3c2-c2cc(OC)ccc2NC3(C)C)cc1,-4.1
10,COc1cc(C(=O)NCc2ccco2)c([N+](=O)[O-])cc1OC,8.4
11,CCOC(=O)C1CCN(Cc2c(O)ccc3ccccc23)CC1,9.4
12,COc1ccc(OC)c(CN2CCN(C(=O)c3ccc(-c4ccccc4)cc3)CC2)c1,-5.1
13,O=C(Nc1cc([N+](=O)[O-])ccc1C(=O)NCc1ccco1)c1cccs1,-5.8
14,COc1ccccc1C(=O)N1CCN(C(=O)CC(C)C)CC1,-5.6
15,O=S(=O)(c1ccc2ccccc2c1)N1CCC(Cc2ccccc2)CC1,-21.4
16,Cc1c(NC(=O)CN(c2cccc([N+](=O)[O-])c2)S(=O)(=O)c2ccccc2)c(=O)n(-c2ccccc2)n1C,11.6
17,COc1cccc(C2(c3cccc(OC)c3)CC2C(=O)Nc2cccc([N+](=O)[O-])c2)c1 (centres undefined),-2.6
18,Cc1ccc(S(=O)(=O)N2CCN(c3ccccc3)CC2)cc1C,-6.7
19,O=C(c1ccccc1)c1ccc2nc(-c3cccnc3)[nH]c2c1,13.2
20,O=C1CC(=O)N2N=C(c3ccccc3)SC2=N1,8.5
21,O=C(CN1C(=O)/C(=C/c2ccc(Br)cc2)SC1=S)Nc1nccs1,9.9
22,N/C(=N/OCC(=O)Nc1ccc(F)cc1)c1nonc1N,7.8

row,Structure (SMILES),displacement [%]
1,N#C/C(=C\c1ccc(-c2ccc(Cl)cc2)o1)c1ccccc1,130
2,COc1ccccc1N(CC(=O)Nc1ccc(C)c(C)c1)S(=O)(=O)c1ccccc1,3.4
3,CC(Oc1ccccc1)C(=O)Nc1cc(C(N)=O)c(Cl)cc1Cl (centres undefined),-0.2
4,O=C1c2c(Cl)c(Cl)c(Cl)c(Cl)c2C(=O)C1(Nc1ccccc1)c1ccccc1,31.1
5,COc1cc(/C=C2\N=C(c3cccc(Br)c3)OC2=O)cc(OC)c1OC,72.6
6,O=C(NCC1CCCO1)c1ccc(-c2ccccc2)cc1 (centres undefined),9.1
7,Clc1cccc(-c2nc3ccccc3[nH]2)c1,1.9
8,Cc1c(C)c2ccc(OCC(=O)C(C)(C)C)cc2oc1=O,12.2
9,O=C(Nc1ccc(I)cc1Cl)c1ccccc1Cl,13.4
10,Cc1cc(C=C2C(=O)NC(=O)NC2=O)c(-c2ccccc2)n1-c1ccccc1,150
11,Cc1cc2oc(=O)cc(C)c2cc1NC(=O)CCC(=O)O,6.5
12,O=C(c1ccc(F)c2ccccc12)N1CCc2ccccc21,19.4
13,CCC1CCc2c(sc(NC(=O)c3ccc(C(C)C)cc3)c2C(N)=O)C1 (centres undefined),34.3
14,CC(C)(C)c1ccc(OCC(=O)Nc2cccc(NC(=O)c3ccccc3)c2)cc1,3.2
15,COc1ccc(C2CC(c3ccc(F)cc3)=NN2c2cccc(F)c2)cc1OC (centres undefined),-6.2
16,FC(F)(F)c1ccc(-c2noc(-c3ccc(Br)cc3)n2)cc1,-10.9
17,Cc1[nH]c2ccccc2c1/C=C(/C#N)C(=O)NCc1ccccc1,-9.6
18,CN(C)Cc1c(O)ccc2c(=O)c(-c3ccc(Cl)cc3Cl)coc12,-17
19,COc1cccc(OCCOc2cccc(/C=C3/SC(=S)N(c4ccccc4)C3=O)c2)c1,37.7
20,O=C(Nc1ccc(N2CCCCC2)cc1)c1cccnc1,-5.8
21,COc1ccc2c(c1)NC(C)(C)c1sn(-c3ccc(C)cc3)c(=S)c1-2,9.2
22,O=C(CCCN1C(=O)c2cccc3cccc(c23)C1=O)NCc1ccco1,-8

row,Structure (SMILES),displacement [%]
1,Cc1ccc(CNC(=O)CN(c2cccc([N+](=O)[O-])c2)S(=O)(=O)c2ccccc2)cc1,11.6
2,Cc1cccc(OCC(=O)Nc2ncc(Cc3ccc(Cl)cc3Cl)s2)c1,-5.1
3,CC1=C(C(=O)OC2CCCCC2)C(c2cccc(Cl)c2)C2=C(CC(C)(C)CC2=O)N1 (centres undefined),-2
4,O=C1/C(=C/c2ccc(Br)cc2)SC(=S)N1Cc1ccco1,104
5,COc1cc(NC(=O)CCC(=O)O)cc(OC)c1OC,-3.7
6,O=C1NC(=S)N(c2cccc(Br)c2)C(=O)/C1=C/c1ccc(O)c(Cl)c1,-1
7,COc1ccc(C2(CNC(=O)CCc3ccccc3)CCCC2)cc1OC,-8.1
8,CCOc1ccc(NC(=S)NC(=O)c2cccs2)c([N+](=O)[O-])c1,6.9
9,COc1cccc(NC(=O)c2ccc(CN(c3ccc(C)c(C)c3)S(C)(=O)=O)cc2)c1,-5.3
10,COc1ccc(NC(=O)Cc2cccc3c(S(=O)O)cccc23)cc1,11.4
11,CCCC(=O)Nc1ccc(NC(=O)COc2ccc3ccccc3c2)cc1,-48
12,OCc1cn(-c2ccccc2)nc1-c1ccc(-c2nn(-c3ccccc3)cc2CO)cc1,-6
13,O=S(=O)(c1ccc2c(c1)OCCO2)N1CCCC1,3.8
14,Cc1ccccc1N1CC(C(=O)N/N=C\c2ccc(Br)cc2)CC1=O (centres undefined),3
15,COc1ccccc1N(CC(=O)NC12CC3CC(CC(C3)C1)C2)S(=O)(=O)c1ccccc1,-6.5
16,COc1ccc(N/C(C)=C/C2=[N+](c3ccccc3)C(C)(O)CS2)cc1 (centres undefined),-1.5
17,COc1ccc(OC)c(/C=C(/C#N)C(=O)Nc2cccc(Br)c2)c1,100
18,COc1ccccc1N1CCN(/N=C/c2ccc(Br)s2)CC1,16.4
19,CC(C)C(=O)NNC(=O)C12CC3CC(CC(C3)C1)C2,-1.7
20,C=CCNC(=O)CN(c1ccc(OC)cc1)S(C)(=O)=O,1.7
21,CC(=O)Nc1ccc(Nc2cc(Cl)c(C(F)(F)F)cc2[N+](=O)[O-])cc1,7.6
